Consider 31 molecules from article PMC9911399, “Two distinct binding modes provide the RNA-binding protein RbFox with extraordinary sequence specificity”.

T1: RBFOX1 RRM (Homo sapiens, UniProt Q9NWB1 109-208)
T1 sequence: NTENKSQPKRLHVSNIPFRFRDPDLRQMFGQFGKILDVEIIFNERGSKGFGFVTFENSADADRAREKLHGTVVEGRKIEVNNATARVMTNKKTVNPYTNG

B1: GCUGGUU (DNA:RNA)
RNA: GGGAGACCGGAAUUCAGAUUGUCCGCUGGUUUUAAAUCCCGUCGUAGCCACCA
DNA 1: CAATCTGAATTCCGGTCTCCC
DNA 2: TGGTGGCTACGACGGGATT
B2: AGCGCAG (DNA:RNA)
RNA: B1 RNA with G25A, C26G, U27C, G29C, U30A, U31G
DNA 1: CAATCTGAATTCCGGTCTCCC
DNA 2: TGGTGGCTACGACGGGATT
B3: UUACAGU (DNA:RNA)
RNA: B1 RNA with G25U, C26U, U27A, G28C, G29A, U30G
DNA 1: CAATCTGAATTCCGGTCTCCC
DNA 2: TGGTGGCTACGACGGGATT
B4: CAGGCAA (DNA:RNA)
RNA: B1 RNA with G25C, C26A, U27G, G29C, U30A, U31A
DNA 1: CAATCTGAATTCCGGTCTCCC
DNA 2: TGGTGGCTACGACGGGATT
B5: GUUGGGU (DNA:RNA)
RNA: B1 RNA with C26U, U30G
DNA 1: CAATCTGAATTCCGGTCTCCC
DNA 2: TGGTGGCTACGACGGGATT
B6: AUGUAGA (DNA:RNA)
RNA: GGGAGACCGGAAUUCAGAUUGUCCAUGUAGAUUAAAUCCCGUCGUAGCCACCA
DNA 1: CAATCTGAATTCCGGTCTCCC
DNA 2: TGGTGGCTACGACGGGATT
B7: GGGUAUG (DNA:RNA)
RNA: B6 RNA with A25G, U26G, G30U, A31G
DNA 1: CAATCTGAATTCCGGTCTCCC
DNA 2: TGGTGGCTACGACGGGATT
B8: CAACGAG (DNA:RNA)
RNA: B1 RNA with G25C, C26A, U27A, G28C, U30A, U31G
DNA 1: CAATCTGAATTCCGGTCTCCC
DNA 2: TGGTGGCTACGACGGGATT
B9: GCGUGGA (DNA:RNA)
RNA: B6 RNA with A25G, U26C, A29G
DNA 1: CAATCTGAATTCCGGTCTCCC
DNA 2: TGGTGGCTACGACGGGATT
B10: GACUGCC (DNA:RNA)
RNA: B1 RNA with C26A, U27C, G28U, U30C, U31C
DNA 1: CAATCTGAATTCCGGTCTCCC
DNA 2: TGGTGGCTACGACGGGATT
B11: CAGACUG (DNA:RNA)
RNA: B6 RNA with A25C, U26A, U28A, A29C, G30U, A31G
DNA 1: CAATCTGAATTCCGGTCTCCC
DNA 2: TGGTGGCTACGACGGGATT
B12: ACGCUAA (DNA:RNA)
RNA: B6 RNA with U26C, U28C, A29U, G30A
DNA 1: CAATCTGAATTCCGGTCTCCC
DNA 2: TGGTGGCTACGACGGGATT
B13: CUUACGG (DNA:RNA)
RNA: B6 RNA with A25C, G27U, U28A, A29C, A31G
DNA 1: CAATCTGAATTCCGGTCTCCC
DNA 2: TGGTGGCTACGACGGGATT
B14: GCUUCAU (DNA:RNA)
RNA: B1 RNA with G28U, G29C, U30A
DNA 1: CAATCTGAATTCCGGTCTCCC
DNA 2: TGGTGGCTACGACGGGATT
B15: UAUGCGG (DNA:RNA)
RNA: B1 RNA with G25U, C26A, G29C, U30G, U31G
DNA 1: CAATCTGAATTCCGGTCTCCC
DNA 2: TGGTGGCTACGACGGGATT
B16: AAGUUAA (DNA:RNA)
RNA: B6 RNA with U26A, A29U, G30A
DNA 1: CAATCTGAATTCCGGTCTCCC
DNA 2: TGGTGGCTACGACGGGATT
B17: GAACAAC (DNA:RNA)
RNA: B6 RNA with A25G, U26A, G27A, U28C, G30A, A31C
DNA 1: CAATCTGAATTCCGGTCTCCC
DNA 2: TGGTGGCTACGACGGGATT
B18: UUGCCAC (DNA:RNA)
RNA: B6 RNA with A25U, U28C, A29C, G30A, A31C
DNA 1: CAATCTGAATTCCGGTCTCCC
DNA 2: TGGTGGCTACGACGGGATT
B19: ACCGCCU (DNA:RNA)
RNA: B1 RNA with G25A, U27C, G29C, U30C
DNA 1: CAATCTGAATTCCGGTCTCCC
DNA 2: TGGTGGCTACGACGGGATT
B20: CUAUUGU (DNA:RNA)
RNA: B6 RNA with A25C, G27A, A29U, A31U
DNA 1: CAATCTGAATTCCGGTCTCCC
DNA 2: TGGTGGCTACGACGGGATT
B21: GCAGCUC (DNA:RNA)
RNA: B1 RNA with U27A, G29C, U31C
DNA 1: CAATCTGAATTCCGGTCTCCC
DNA 2: TGGTGGCTACGACGGGATT
B22: GACUCGU (DNA:RNA)
RNA: B6 RNA with A25G, U26A, G27C, A29C, A31U
DNA 1: CAATCTGAATTCCGGTCTCCC
DNA 2: TGGTGGCTACGACGGGATT
B23: GGGCGAA (DNA:RNA)
RNA: B6 RNA with A25G, U26G, U28C, A29G, G30A
DNA 1: CAATCTGAATTCCGGTCTCCC
DNA 2: TGGTGGCTACGACGGGATT
B24: CACCCAU (DNA:RNA)
RNA: B1 RNA with G25C, C26A, U27C, G28C, G29C, U30A
DNA 1: CAATCTGAATTCCGGTCTCCC
DNA 2: TGGTGGCTACGACGGGATT
B25: CAUUGGU (DNA:RNA)
RNA: B1 RNA with G25C, C26A, G28U, U30G
DNA 1: CAATCTGAATTCCGGTCTCCC
DNA 2: TGGTGGCTACGACGGGATT
B26: CUUCACA (DNA:RNA)
RNA: B6 RNA with A25C, G27U, U28C, G30C
DNA 1: CAATCTGAATTCCGGTCTCCC
DNA 2: TGGTGGCTACGACGGGATT
B27: CUUUUAC (DNA:RNA)
RNA: B6 RNA with A25C, G27U, A29U, G30A, A31C
DNA 1: CAATCTGAATTCCGGTCTCCC
DNA 2: TGGTGGCTACGACGGGATT
B28: GCUAGCC (DNA:RNA)
RNA: B1 RNA with G28A, U30C, U31C
DNA 1: CAATCTGAATTCCGGTCTCCC
DNA 2: TGGTGGCTACGACGGGATT
B29: AGCAAUU (DNA:RNA)
RNA: B6 RNA with U26G, G27C, U28A, G30U, A31U
DNA 1: CAATCTGAATTCCGGTCTCCC
DNA 2: TGGTGGCTACGACGGGATT
B30: CUAUCCG (DNA:RNA)
RNA: B6 RNA with A25C, G27A, A29C, G30C, A31G
DNA 1: CAATCTGAATTCCGGTCTCCC
DNA 2: TGGTGGCTACGACGGGATT
B31: GUUUACU (DNA:RNA)
RNA: B6 RNA with A25G, G27U, G30C, A31U
DNA 1: CAATCTGAATTCCGGTCTCCC
DNA 2: TGGTGGCTACGACGGGATT

Positions count from the first letter of the chain named. The list shows a part of the results.

The experiment deals with T1, RBFOX1 RRM. The experiment is described as follows: EMSA; HiTS-Eq, 1 nM pool, 10 min; buffer printed only for the single-RNA assays: 10 mM Tris pH 7.5, 150 mM NaCl, 3.4 mM EDTA, 0.001% NP-40, 30 C. The settings on record: tags: His6 N-terminal (pET28a); label: 5' 32P. The gist of the method:
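Relative association constants, normalised to the cognate motif, were derived by comparing read counts of each RNA species with those of the control reaction. The RNA sequenced was the free fraction, separated by 8% native PAGE after a 10 min equilibration in 50 µL of 1 nM 5′-radiolabelled RNA (7 randomized nucleotides) with increasing concentrations of purified wild-type or mutant RbFox RRM.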
(In general: A gel shift assay detects complexes by their altered migration in electrophoresis.)
For B1, the binding signal was 0.0289 KA relative to UGCAUGU.
The same measure for B2: 0.0119 KA relative to UGCAUGU; for B3: 0.00852 KA relative to UGCAUGU; for B4: 0.00735 KA relative to UGCAUGU.
The same measure for B5: 0.0137 KA relative to UGCAUGU; for B6: 0.00728 KA relative to UGCAUGU; for B7: 0.0229 KA relative to UGCAUGU.
The same measure for B8: 0.00579 KA relative to UGCAUGU.
B9: the binding signal is 0.0179 KA relative to UGCAUGU.
B10: the binding signal is 0.0195 KA relative to UGCAUGU.
In the case of B11, the binding signal is 0.0132 KA relative to UGCAUGU.
The same measure for B12: 0.00214 KA relative to UGCAUGU.
As to B13, the binding signal was 0.00764 KA relative to UGCAUGU.
The same measure for B14: 0.00945 KA relative to UGCAUGU; for B15: 0.0177 KA relative to UGCAUGU.
The same measure for B16: 0.00186 KA relative to UGCAUGU; for B17: 0.00288 KA relative to UGCAUGU; for B18: 0.0102 KA relative to UGCAUGU.
The same measure for B19: 0.00367 KA relative to UGCAUGU.
For B20, the binding signal is 0.0108 KA relative to UGCAUGU.
The same measure for B21: 0.00975 KA relative to UGCAUGU; for B22: 0.0194 KA relative to UGCAUGU; for B23: 0.0144 KA relative to UGCAUGU.
With B24 the figure was 0.00273 KA relative to UGCAUGU.
Consider B25, for which the binding signal is 0.0102 KA relative to UGCAUGU.
For the molecule B26, the binding signal was 0.000879 KA relative to UGCAUGU.
For the molecule B27, the binding signal is 0.00588 KA relative to UGCAUGU.
For the molecule B28, the binding signal was 0.015 KA relative to UGCAUGU.
For B29, the binding signal is 0.00513 KA relative to UGCAUGU.
Turning to B30, the binding signal was 0.00475 KA relative to UGCAUGU.
With B31 the figure was 0.0106 KA relative to UGCAUGU.
